# Results published in the supplement of paper PMC8728848.
# The list shows a part of the results.
# Assays:
# Test in all cases: glycan array binding signal (z-score within array); higher = stronger binding
# Settings in all cases: glycan notation: IUPAC condensed, linker removed
# [1] = target: Man(a1-3)[Man(a1-6)]Man(a1-6)[Man(a1-3)]Man
# Summary of the method: (§1)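 Negative Z-scores can be read as non-binding. The Z-score is calculated within each array and then averaged across arrays of one protein sequence at different concentrations or buffers and across linkers. Arrays, 3228 in all, were curated from the Consortium for Functional Glycomics database and kept only where the protein sequence was available.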
# [2] = target: Man(a1-3)[Man(a1-6)]Man(a1-6)[Man(a1-3)]Man(b1-4)GlcNAc(b1-4)GlcNAc
# Summary of the method: as §1
# [3] = target: Man(a1-3)[Man(a1-6)]Man(b1-4)GlcNAc(b1-4)GlcNAc
# Summary of the method: as §1
# [4] = target: Man(a1-3)[Man(a1-6)]Man(b1-4)GlcNAc(b1-4)[Fuc(a1-6)]GlcNAc
# Summary of the method: as §1
# Man(a1-6)Man = target: Man(a1-6)Man
# Summary of the method: as §1
# Man(b1-4)GlcNAc = target: Man(b1-4)GlcNAc
# Summary of the method: as §1
# MurNAc(b1-4)GlcNAc = target: MurNAc(b1-4)GlcNAc
# Summary of the method: as §1
# Neu5Ac(a2-3)Gal = target: Neu5Ac(a2-3)Gal
# Summary of the method: as §1
# [5] = target: Neu5Ac(a2-3)Gal(b1-3)GalNAc
# Summary of the method: as §1
# [6] = target: Neu5Ac(a2-3)Gal(b1-3)GalNAc(b1-3)Gal(a1-4)Gal(b1-4)Glc
# Summary of the method: as §1
# [7] = target: Neu5Ac(a2-3)Gal(b1-3)GalNAc(b1-4)[Neu5Ac(a2-3)]Gal(b1-4)Glc
# Summary of the method: as §1
# [8] = target: Neu5Ac(a2-3)Gal(b1-3)GalNAc(b1-4)[Neu5Ac(a2-8)Neu5Ac(a2-3)]Gal(b1-4)Glc
# Summary of the method: as §1
# [9] = target: Neu5Ac(a2-3)Gal(b1-3)GalNAc6S
# Summary of the method: as §1
# [10] = target: Neu5Ac(a2-3)Gal(b1-3)GlcNAc
# Summary of the method: as §1
# [11] = target: Neu5Ac(a2-3)Gal(b1-3)GlcNAc(b1-2)Man
# Summary of the method: as §1
# [12] = target: Neu5Ac(a2-3)Gal(b1-3)GlcNAc(b1-2)Man(a1-3)[GlcNAc(b1-4)][Neu5Ac(a2-3)Gal(b1-3)GlcNAc(b1-2)Man(a1-6)]Man(b1-4)GlcNAc(b1-4)GlcNAc
# Summary of the method: as §1
# [13] = target: Neu5Ac(a2-3)Gal(b1-3)GlcNAc(b1-2)Man(a1-3)[Neu5Ac(a2-3)Gal(b1-3)GlcNAc(b1-2)Man(a1-6)]Man(b1-4)GlcNAc(b1-4)GlcNAc
# Summary of the method: as §1
# [14] = target: Neu5Ac(a2-3)Gal(b1-3)GlcNAc(b1-3)Gal(b1-3)GlcNAc
# Summary of the method: as §1
# [15] = target: Neu5Ac(a2-3)Gal(b1-3)GlcNAc(b1-3)Gal(b1-4)GlcNAc
# Summary of the method: as §1
# [16] = target: Neu5Ac(a2-3)Gal(b1-3)GlcNAc(b1-3)GalNAc
# Summary of the method: as §1
# [17] = target: Neu5Ac(a2-3)Gal(b1-3)GlcNAc(b1-4)Gal(b1-4)Glc
# Summary of the method: as §1
# [18] = target: Neu5Ac(a2-3)Gal(b1-3)GlcNAc(b1-6)GalNAc
# Summary of the method: as §1
# [19] = target: Neu5Ac(a2-3)Gal(b1-3)GlcNAc6S
# Summary of the method: as §1
# [20] = target: Neu5Ac(a2-3)Gal(b1-3)[Fuc(a1-4)]GlcNAc
# Summary of the method: as §1
# [21] = target: Neu5Ac(a2-3)Gal(b1-3)[Fuc(a1-4)]GlcNAc(b1-3)Gal(b1-3)[Fuc(a1-4)]GlcNAc
# Summary of the method: as §1
# [22] = target: Neu5Ac(a2-3)Gal(b1-3)[Fuc(a1-4)]GlcNAc(b1-3)Gal(b1-4)[Fuc(a1-3)]GlcNAc
# Summary of the method: as §1
# [23] = target: Neu5Ac(a2-3)Gal(b1-3)[GlcNAc(b1-6)]GalNAc
# Summary of the method: as §1
# [24] = target: Neu5Ac(a2-3)Gal(b1-3)[Neu5Ac(a2-6)]GalNAc
# Summary of the method: as §1
# [25] = target: Neu5Ac(a2-3)Gal(b1-3)[Neu5Ac(a2-6)]GlcNAc(b1-3)[Fuc(a1-3)[Gal(b1-4)]GlcNAc(b1-6)]Gal(b1-4)Glc
# Summary of the method: as §1
# [26] = target: Neu5Ac(a2-3)Gal(b1-3)]Neu5Ac(a2-3)Gal(b1-4)]GlcNAc
# Summary of the method: as §1
# Neu5Ac(a2-3)Gal(b1-4)Glc = target: Neu5Ac(a2-3)Gal(b1-4)Glc
# Summary of the method: as §1
# [27] = target: Neu5Ac(a2-3)Gal(b1-4)GlcNAc
# Summary of the method: as §1
# [28] = target: Neu5Ac(a2-3)Gal(b1-4)GlcNAc(b1-2)Man
# Summary of the method: as §1
# [29] = target: Neu5Ac(a2-3)Gal(b1-4)GlcNAc(b1-2)Man(a1-3)[GlcNAc(b1-4)][Neu5Ac(a2-3)Gal(b1-4)GlcNAc(b1-2)Man(a1-6)]Man(b1-4)GlcNAc(b1-4)GlcNAc
# Summary of the method: as §1
# [30] = target: Neu5Ac(a2-3)Gal(b1-4)GlcNAc(b1-2)Man(a1-3)[Neu5Ac(a2-3)Gal(b1-4)GlcNAc(b1-2)Man(a1-6)]Man(b1-4)GlcNAc(b1-4)GlcNAc
# Summary of the method: as §1
# [31] = target: Neu5Ac(a2-3)Gal(b1-4)GlcNAc(b1-2)Man(a1-3)[Neu5Ac(a2-3)Gal(b1-4)GlcNAc(b1-2)Man(a1-6)]Man(b1-4)GlcNAc(b1-4)[Fuc(a1-6)]GlcNAc
# Summary of the method: as §1
# [32] = target: Neu5Ac(a2-3)Gal(b1-4)GlcNAc(b1-2)Man(a1-3)[Neu5Ac(a2-6)Gal(b1-4)GlcNAc(b1-2)Man(a1-6)]Man(b1-4)GlcNAc(b1-4)GlcNAc
# Summary of the method: as §1
# [33] = target: Neu5Ac(a2-3)Gal(b1-4)GlcNAc(b1-2)[Neu5Ac(a2-3)Gal(b1-4)GlcNAc(b1-4)]Man(a1-3)[GlcNAc(b1-4)][Neu5Ac(a2-3)Gal(b1-4)GlcNAc(b1-2)[Neu5Ac(a2-3)Gal(b1-4)GlcNAc(b1-6)]Man(a1-6)]Man(b1-4)GlcNAc(b1-4)GlcNAc
# Summary of the method: as §1
binder,measurement,setting,value
Cohesin-hDECTIN-1 (Homo sapiens) (protein) LDITSHHHHHHDDLDAVRIKVDTVNAKPGDTVRIPVRFSGIPSKGIANCDFVYSYDPNVLEIIEIEPGDIIVDPNPDKSFDTAVYPDRKIIVFLFAEDSGTGAYAITKDGVFATIVAKVKEGAPNGLSVIKFVEVGGFANNDLVEQKTQFFDGGVNVGDTTEPATPTTPVTTPTTTDDLDAASSSPCPPNWIIYEKSCYLFSMSLNSWDGSKRQCWQLGSNLLKIDSSNELGFIVKQVSSQPDNSFWIGLSRPQTEVPWLWEDGSTFSSNLFQIRTTATQENPSPNCVWIHVSVIYDQLCSVPSYSICEKKFM,glycan array binding signal (z-score),[1],-0.272
same,glycan array binding signal (z-score),[2],-0.562
same,glycan array binding signal (z-score),[3],-0.44
same,glycan array binding signal (z-score),[4],-0.534
same,glycan array binding signal (z-score),Man(a1-6)Man,0.496
same,glycan array binding signal (z-score),Man(b1-4)GlcNAc,-0.36
same,glycan array binding signal (z-score),MurNAc(b1-4)GlcNAc,-0.397
same,glycan array binding signal (z-score),Neu5Ac(a2-3)Gal,-0.403
same,glycan array binding signal (z-score),[5],-0.482
same,glycan array binding signal (z-score),[6],-0.037
same,glycan array binding signal (z-score),[7],-0.447
same,glycan array binding signal (z-score),[8],-0.355
same,glycan array binding signal (z-score),[9],0.081
same,glycan array binding signal (z-score),[10],-0.404
same,glycan array binding signal (z-score),[11],-0.06
same,glycan array binding signal (z-score),[12],-0.441
same,glycan array binding signal (z-score),[13],-0.206
same,glycan array binding signal (z-score),[14],-0.252
same,glycan array binding signal (z-score),[15],-0.448
same,glycan array binding signal (z-score),[16],-0.224
same,glycan array binding signal (z-score),[17],-0.22
same,glycan array binding signal (z-score),[18],1.9
same,glycan array binding signal (z-score),[19],-0.326
same,glycan array binding signal (z-score),[20],-0.24
same,glycan array binding signal (z-score),[21],-0.192
same,glycan array binding signal (z-score),[22],-0.589
same,glycan array binding signal (z-score),[23],-0.396
same,glycan array binding signal (z-score),[24],-0.14
same,glycan array binding signal (z-score),[25],-0.605
same,glycan array binding signal (z-score),[26],-0.231
same,glycan array binding signal (z-score),Neu5Ac(a2-3)Gal(b1-4)Glc,-0.374
same,glycan array binding signal (z-score),[27],-0.396
same,glycan array binding signal (z-score),[28],0.352
same,glycan array binding signal (z-score),[29],-0.542
same,glycan array binding signal (z-score),[30],0.52
same,glycan array binding signal (z-score),[31],-0.434
same,glycan array binding signal (z-score),[32],-0.644
same,glycan array binding signal (z-score),[33],0.436
